Data reported in ChEMBL document CHEMBL4888484, “Replenishing the malaria drug discovery pipeline: Screening and hit evaluation of the MMV Hit Generation Library 1 (HGL1) against asexual blood stage Plasmodium falciparum ,using a nano luciferase reporter read-out” (2022).
Values joined by “and” are separate entries in the source; they are usually repeats but may differ in a detail not shown here. Equal entries are not always repeated. Among all 150,000 compounds or so, about 540 (0.36%) showed an effect of 50% or more. The list shows a part of the results.

Tested on: Plasmodium falciparum
Experiment: Primary screen in NF54 nanoGlo assay, in single point, at 2uM, 72h; a lower Z score goes with more inhibition
Type: functional, Erythrocyte
Settings: timepoint 72 hour

SMILES | % Inhibition [%] | Z score | % Inhibition (2 µM) | Z score (2 µM)
CC(C)C(=O)N1CCc2cc(CNC(=O)Cc3cccs3)ccc21 | -6 | 0.95 |  | 
O=c1cc(-c2ccccc2)n(S(=O)(=O)c2ccc(Br)cc2)o1 | 8 | -1.07 |  | 
CCC[C@H]1CN(C(=O)c2cnc(-c3ccncc3)nc2)C[C@@H]1N(C)C | -3 | 0.55 |  | 
CC(C)c1nnc(NC(=O)[C@H](Cc2ccccc2)NC(=O)N2CCCC2)s1 | -6 | 0.75 |  | 
COc1ccc(CCC(=O)N2C[C@@H](CN3CCN(C)CC3)[C@@H](CO)C2)cc1 | -12 | 1.51 |  | 
Cc1ccc(C)c(C(C)N(C)C(=O)C2CCCNC2)c1 (stereo not given) | -10 | 0.84 |  | 
CN(C)c1cccc(C(=O)Nc2ccc(-c3nnc4n3CCCCCC4)cc2)c1 | -22 | 2.48 |  | 
COc1cccc(C(=O)N2C[C@@H]3CN(CC(C)C)CC[C@]3(CO)C2)c1C | -12 | 1.68 |  | 
O=C(NC1CCN(C2CC2)CC1)C1CC1c1cccc(F)c1F (stereo not given) | 8 | -0.79 |  | 
Cc1cc(C)nc(NS(=O)(=O)c2ccc(NCc3cc(Cl)cc(Cl)c3O)cc2)n1 | 5 | -0.8 |  | 
O=C(N[C@H]1CCCN(Cc2ccncc2)CC1)c1ncoc1C1CC1 | -5 | 0.83 |  | 
CC(C)Oc1nccnc1NC[C@](C)(O)c1cccc(Cl)c1 | 31 | -4.42 |  | 
O=C(NC1CCN(C[C@H]2CCCO2)CC1)N1CCC(c2ccccc2)CC1 | -14 | 1.53 |  | 
COc1ccc(N(C)S(=O)(=O)c2ccsc2-c2nc(-c3cccc(C)c3)no2)cc1Cl | -7 | 0.94 |  | 
CCC[C@H](C)C(=O)Nc1nnc(C)s1 | -12 | 2.27 |  | 
Nc1nnnn1CC(=O)N1CCC2(CCC(=O)N(CCc3cccnc3)C2)CC1 | -6 | 1.05 |  | 
Cc1nc2ccccc2n1CCN[C@@H](C)CCN1C(=O)c2ccccc2C1=O | -3 | 0.44 |  | 
CCOc1ccc(CNC(=O)c2cccn2-c2cccnc2C)cc1 | 2 | -0.17 |  | 
CCc1cn[nH]c1[C@H]1CCCN(C(=O)c2cc3c(nc2OC)CCC3)C1 | -9 | 1.12 |  | 
O=C(c1ccco1)N1CCN(c2nnnc3c2cnn3-c2ccccc2)CC1 | -12 | 1.81 |  | 
CCc1nnc2c(S(=O)(=O)N(Cc3ccccc3F)c3ccc(F)cc3)cccn12 | 0 | 0.03 |  | 
Cc1cc(C)n(CCN[C@@](C)(CO)C2CCCCC2)n1 | -3 | 0.52 |  | 
COC1(c2nccn2C)CN(C(=O)c2scnc2C(C)C)C1 | 18 | -2.06 |  | 
Cc1cccc(OCC(=O)Nc2cc(-c3noc(C)n3)sc2C)c1 | -14 | 2.32 |  | 
OC1(Cc2nc(-c3cc4ccccc4o3)no2)CCCC1 | -6 | 0.86 |  | 
Cc1cnc(CNC(=O)c2cc3cccc(Cl)c3n2C)cn1 | 4 | -0.53 |  | 
Cc1cc(C(=O)N2CCc3onc(-c4cccc5ccccc45)c3C2)[nH]n1 | -19 | 3.97 |  | 
O=C([C@@H]1Cc2ccccc2S(=O)(=O)N1)N1CCc2[nH]cnc2C1 | -6 | 0.98 |  | 

SMILES | % Inhibition [%] | Z score | % Inhibition (2 µM) | Z score (2 µM)
Cc1ccc(=O)n(Cc2ccc3c(c2)CCC3)n1 | 28 | -3.19 |  | 
Cc1nc(N(C)C)ncc1C(=O)N1C[C@H](O)CO1 | 10 | -0.93 |  | 
Cc1onc(C(=O)N2CCC3(CC2)CC[C@]3(C)O)c1CN1CCCCC1 | 5 | -0.65 |  | 
Cn1nc(C2CC2)nc1CN1CCO[C@@H](Cn2cccn2)C1 | 0 | 0.05 |  | 
Cc1ccc(Cn2nc(CC(N)=O)nc2Cn2nc(C)ccc2=O)cc1 | -3 | 0.47 |  | 
Cc1cc(Cl)ccc1OCCOCCN(C)CCO | 0 | 0.04 |  | 
O=C(c1n[nH]c2c1COCC2)N1CCO[C@H](c2ccccc2)C1 | -9 | 1.8 |  | 
CC(C)c1nc(-c2cc3ncc(CCO)cn3n2)n(-c2ccccn2)n1 | -10 | 1 |  | 
OC(c1ccccc1)c1ncnn1CC1(O)CCCOC1 (stereo not given) | 3 | -0.4 |  | 
COc1ccnc(CNC(=O)N[C@H](C)C2CCCc3ccccc32)c1F (stereo not given in full) | -8 | 0.76 |  | 
Cc1nc(C(=O)NC[C@H](C)C2CCCCC2)n(C)n1 | -9 | 1.07 |  | 
CC(O)CNC(CCCNC(=O)OC(C)(C)C)c1ccccc1 (stereo not given) | -9 | 1.45 |  | 
Cn1nc(-c2ccsc2)cc1NC(=O)N1C2CCC1CC1(C2)CC1(F)F (stereo not given) | -4 | 0.73 |  | 
NC(=O)N1CCC[C@H](CNC(=O)Cc2cc(-c3ccccc3)on2)C1 | -8 | 0.92 |  | 
CC(C)(O)CN1CCN(C(=O)CCNC(=O)C(C)(C)C)CC1 | 4 | -0.45 |  | 
CN(CCn1ccnc1)c1cc([C@H]2CCOC2)nc(N)n1 | -14 | 1.58 |  | 
Cc1nc([C@@H]2COCCN2Cc2ccc3nonc3c2)no1 | -5 | 0.97 |  | 
CCC(=O)C(=O)N1CC(=O)N(c2ccccc2-c2ccccc2)C[C@@H]1Cc1ccccc1 | 10 | -1.33 |  | 
O=S1(=O)CC[C@H](Nc2nc3ccc(Cl)cc3s2)C1 | 1 | -0.15 |  | 
Cc1ccc(CNC(=O)CNC(=O)OCC(F)(F)F)n1C | -4 | 0.62 |  | 
CCC(C)C(=O)NCC(c1ccsc1)N(C)C (stereo not given) | -6 | 1.2 |  | 
CCc1c(C)cc(C(=O)N(C)CCn2cccn2)c(=O)n1C | 12 | -1.63 |  | 
CCC(CC)NCc1cccc(OC)c1OC |  |  | -6% and -2% | 0.9 and 0.41
Cn1nccc1C(=O)NCCCn1cc(Cl)cn1 | -18 | 1.95 |  | 
Cc1cccnc1CNC(=O)c1cccc(S(=O)(=O)N[C@H]2CCOC2)c1 | 1 | -0.2 |  | 
C[C@H](Nc1ncc(C(F)(F)F)cc1Cl)C(N)=O | -10 | 1.96 |  | 
CN(C)[C@H]1CN(S(=O)(=O)c2ccc(C#N)cc2)CC12CCOCC2 | -11 | 2.19 |  | 
